The other results are listed elsewhere or left out. At the low end of the ranking the order means little. Measured with an extract: partners may take part in the binding.

The experiment deals with T1, HNF4alpha2 (COS-7 nuclear extract) (UniProt P41235).
T1 sequence: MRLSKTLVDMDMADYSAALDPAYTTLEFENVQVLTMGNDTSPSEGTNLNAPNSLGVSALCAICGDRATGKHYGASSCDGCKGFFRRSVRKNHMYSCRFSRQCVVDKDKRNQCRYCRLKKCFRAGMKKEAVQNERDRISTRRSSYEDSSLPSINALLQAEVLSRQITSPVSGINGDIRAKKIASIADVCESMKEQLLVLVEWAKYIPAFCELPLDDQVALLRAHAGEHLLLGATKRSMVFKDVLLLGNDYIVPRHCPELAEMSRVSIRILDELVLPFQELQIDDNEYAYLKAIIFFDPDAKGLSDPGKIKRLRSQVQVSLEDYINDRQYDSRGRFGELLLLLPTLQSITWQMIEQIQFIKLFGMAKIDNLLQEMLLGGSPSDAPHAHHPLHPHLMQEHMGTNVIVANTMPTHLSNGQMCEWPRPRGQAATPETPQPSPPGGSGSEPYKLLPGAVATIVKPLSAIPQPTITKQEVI
Nature of the experiment: protein-binding microarray. Conditions: COS-7 nuclear extract on double-stranded Agilent 4x180k PBM; binding buffer, salt, pH and temperature not given; high values mean tight binding; double strand, one strand shown; sequences stand for … in …GCCTAGGGAGATTAGAGTATCGGTCGA
Turning to AGAGCACAGGATCCAGAGGTCACCCAGAGC, the binding signal (log2 normalized intensity) is 1.32. For the sequence TTATCTTGATGGTTAAAGTCCAATCTTCTG, the binding signal (log2 normalized intensity) is 4.1. Take AGCTGGAGGAGACCTTTGGATATCATATCA: the binding signal (log2 normalized intensity) turned out to be 1.95.

Regarding CTATCACTGTCTAGCTGTGTAACCCTGGAC, the binding signal (log2 normalized intensity) turned out to be 1.48. With TCACCATATCCCTGAGAGGCCAGTTTGACC the figure was 2.83; with TGGACTTTGATCCTGATGACTGCAGAGCTT, 5.26; with GTAACCACCTCTCTGGGTGGTTCGAGACCC, 0.708.

GCCGTTGGACCAAGCTCTAGCATCCCTCTC: the binding signal (log2 normalized intensity) is -1.2. Turning to ACCTTTGCTCACGTTTTCCTGCTGACCCTC, the binding signal (log2 normalized intensity) came out at 3.43. As to AATGTTTCAAAGTTTTTCCCCTTGGTGGAT, the binding signal (log2 normalized intensity) is 1.86.

With ATTTGATAAGATGTGTAAAACACAAATCTC, the binding signal (log2 normalized intensity) is -1.04. The figure for GACATGATCAAAGTTCATTGTAGCCTCAAA is 3.16.

On to GTAGGGCCAATCTCTGGCATGTATTTATCA, for which the binding signal (log2 normalized intensity) was found to be 0.384. With CACAAAGGTGCAAAGTACATATTTACTTAC the figure was 3.46; with AAAGAGATTGGACTTTGGCCTGTGAATCCA, 8.37. With GTCCCAAGCATCTCTGAGCAGTGAATGTTG, the binding signal (log2 normalized intensity) was -0.97.

Regarding GGGCAATGACCTGGACAGGTCCAAGGTTCT, the binding signal (log2 normalized intensity) was determined as 1.7.

Regarding AGAGACTAGTATGTAAATAAGAGCTTTGCA, the binding signal (log2 normalized intensity) was -0.887. As for CCCACAATCAGTCTGATTGGTTGCAGAAGG, the binding signal (log2 normalized intensity) turned out to be 1.06. Regarding AGCAGCTTGAGGCTCCGATAAACCCAGGCA, the binding signal (log2 normalized intensity) was -1.24. The figure for GCTTTTGCACTTTACTCAGAAAGGTCAGCG is 2.81. With AGAAATTGCGCTAACCAGATGGTAGATGGG, the binding signal (log2 normalized intensity) came out at 0.522. With CTGACTAGGACAGAGCAGATGAAAGTAGTT, the binding signal (log2 normalized intensity) is -0.684. Take GAAGCCCAGCAGCTCCAGGAGACGTAGAGA: the binding signal (log2 normalized intensity) was -1.22.

Regarding CTCTGTGAAGTGGAGATAATAGGAGATAAT, the binding signal (log2 normalized intensity) amounted to 0.0446.

In the case of GAATTTCATTTTGCTCTTTGTTCAGATACA, the binding signal (log2 normalized intensity) stood at 1.33. The figure for CTGCACTTTTGTGCTCTGTACCCGGCTGCC is 1.13; for GGGCTGGGGGCAGGGCTGGTCGGATGGCCG it is -0.96. In the case of TCCCTCATTAGTAACTCCAGAGATAAGATA, the binding signal (log2 normalized intensity) came to 0.0683. As to ATGGAAGTTTGCCCTGGTTGAGGAATTTGG, the binding signal (log2 normalized intensity) was 1.62. In the case of GATTACATGGGAGATAGAGCAGTGGAAGAC, the binding signal (log2 normalized intensity) was -1.01. With TATTACTAAGTGAGAAAAGAACCATGAGAG, the binding signal (log2 normalized intensity) is -0.566. For the sequence TTAAAGACCAAAGATCACAGTGAAGGTGAA, the binding signal (log2 normalized intensity) is 0.86.

For the sequence TGTGAACCCAGGCAAAGTCCAGAAATAGCA, the binding signal (log2 normalized intensity) worked out at 1.4. For TTGATTCCATGCTGATAATGGAATTGACAT, the binding signal (log2 normalized intensity) amounted to 0.927. With AGAGAAGTTGATTGCACCCTTCCCTAAGAT, the binding signal (log2 normalized intensity) came to 0.293. Consider AGATCTCAGTTGGTCCAAGGTACATGTCTC, for which the binding signal (log2 normalized intensity) stood at 2.34. In the case of AAAGCCCTTTTTGGAATGTGTTTGCATGAC, the binding signal (log2 normalized intensity) was 1.63.

For the sequence GAATCAAAGGTCAGGAATCGCATTGCAAAA, the binding signal (log2 normalized intensity) was determined as 1.13. As for AGCGGAAAGAAAGGCCTTTCATACGTTTAA, the binding signal (log2 normalized intensity) was -1.02. In the case of AGGGTCAGTTTGAAATTAGGCAATATGAGT, the binding signal (log2 normalized intensity) was determined as 1.1. Turning to TACCTCTGATCACTACAAGCTTTGAAGGCA, the binding signal (log2 normalized intensity) is -1.11.

With ACTGGTGGTTTCACAATTAAGCCAAACTTG, the binding signal (log2 normalized intensity) is -1.18. CTCTTTTCTTTGTACCGTATTTCAGACCAC: the binding signal (log2 normalized intensity) came to 2.19. With TTTACTGAGACTTAACAGTCACTCATGAGC, the binding signal (log2 normalized intensity) was -1.1.

With GTCAGATGGCCAAAGTCAACATTGATGGGG, the binding signal (log2 normalized intensity) was -0.071. Take GAGTGACCTGGTATTGCAAGTATTTCACCC: the binding signal (log2 normalized intensity) was 1.57. In the case of CACTGTGCTCTGAAAAGTGAACTGTCTGCT, the binding signal (log2 normalized intensity) came out at 0.113. The figure for TCAGGAGTGATGCCAGAAGATTAGTGATGG is -0.625.

Turning to CTCCAGATCAAAGGTCAAACAGTGCACTGA, the binding signal (log2 normalized intensity) is 5.4. On to TGCAAGACCTCAGCCCTCAGGGGCCTTCAG, for which the binding signal (log2 normalized intensity) was -0.862. For ACTCAAAGAAAAGTTATGTTGGGCAACTAC, the binding signal (log2 normalized intensity) is -0.192. The figure for CAGCCACTTTTAAAAGGTAACATCAAAGCC is -0.841. In the case of GGGGTTAACGTCCAAAGGTAATGGTCTCTC, the binding signal (log2 normalized intensity) was determined as 2.04. As to GCAAGGATGGGGGCAAAGGTTGACACCTAG, the binding signal (log2 normalized intensity) was determined as 4.18. The figure for TCTCACTCACCCTAAGCCCTGCTCAGGGAA is -1.01; for ACATGGTCCAGTCACAGCAAAAGTAGCCTG it is -0.698.

Take ATTATCCCCCTATCCCAAGACATCAATTAA: the binding signal (log2 normalized intensity) came out at 3.88. With ATCCCACCAAAACCAAGATAGTGACGGAGG the figure was -1.23; with TGTTTGCAAGTCGAGCAAGGTTCAGCACAT, 0.65; with GAATTCCATCCCAGGTCCACAGTGCACATT, 1.25. GTGGGTTTAAGTAAGCCCCCTTCCCCCCTG: the binding signal (log2 normalized intensity) came out at 5.21. With ACAGGGATTACGATCCTGCCCTTCTGACCT, the binding signal (log2 normalized intensity) amounted to 5.19. The figure for CATTCTCAGCTGCCACTGGAAGCTCTTCTG is -1.11; for ACAACCTTCTGAGATGGAGCATGATGAAAT it is -0.0203. Take TACCTATGCCTTGTCTAGTTAAGTGTTCAG: the binding signal (log2 normalized intensity) is 1.59. With CTTTCAAACAAAAGCTGCTTCTGTAAAACT the figure was -0.835; with TTTAAGAGCTCTGTGTCAAAAATCAGGGAC, -0.28; with CAATCAGCCTTAGGTATGCCCCATGGTAAG, 1.68. With GGCTTGCAAGACTGCATTCCCTAGATGTCG the figure was -0.552; with AAAACCATTGCAAATTGGATGTTGAACCTC, 3.66. Take AGAGATAAGGTCTTCTACAGTCCAAAGGGC: the binding signal (log2 normalized intensity) came to 5.44.

Source of the values: publication PMC10726135.
